Results reported in paper PMC8436213 (Journal of Medicinal Chemistry, 2021).
Marks after values point to notes of the source that are not given here.

Key:
Wistar rats [1] = conditions: rat, in vivo; for FST MED: ip
Wistar rats [2] = conditions: rat, in vivo, ip
Wistar rats [3] = conditions: rat, in vivo, ip; remark: listed apart in the source
Wistar rats [4] = conditions: rat, in vivo
human H1 receptor = human H1 receptor (Homo sapiens, UniProt P35367); assay: biochemical; conditions: read-out: H1R % inhibition of control specific binding
human M1 receptor = human M1 receptor (Homo sapiens, UniProt P11229); assay: biochemical; conditions: read-out: M1R % inhibition of control specific binding
[5] = target: serotonin and dopamine receptors (5-HT2A, 5-HT6, 5-HT7, D2); conditions: cited from earlier work
[6] = target: human serotonin 5-HT7 receptor (Homo sapiens, UniProt P34969); assay: cell-based
mice = conditions: mouse, in vivo; cited from earlier work

| SMILES | inhibition at 1 µM (human H1 receptor) [%] | inhibition at 1 µM (human M1 receptor) [%] | further results |
| --- | --- | --- | --- |
| C[C@H]1C[C@H](NS(=O)(=O)c2cc3ccccc3s2)CN1CCCc1noc2cc(F)ccc12 [Compound 16, N-((3S,5S)-1-(3-(6-Fluorobenzo[d]isoxazol-3-yl)propyl)-5-methylpyrrolidin-3-yl)benzo[b]thiophene-2-sulfonamide] | 2 | -1 | efficacy in the FST (in words) (Wistar rats [1]): did not show statistically significant efficacy; efficacy in the Vogel conflict drinking test (in words) (Wistar rats [2]): statistically significant anxiolytic effects; EPM total open arm time (in words) (Wistar rats [3]): significantly and dose-dependently enhanced the total open arm time; MK-801-induced hyperactivity, total distance traveled (in words) (Wistar rats [4]): tended to decrease the total distance animals traveled |
| O=S(=O)(NC1CCN(CCCc2noc3cc(F)ccc23)C1)c1ccc(F)cc1 (centres unmarked) [Compound 1] |  |  | affinity for the defined biological targets (pKi) [5]: > 7 |
| O=S(=O)(CC1CCN(CCCc2noc3cc(F)ccc23)C1)c1ccc2ccccc2c1 (centres unmarked) [Compound 2, 6-Fluoro-3-(3-(3-(((naphthalene-2-yl-phenyl)sulfonyl)methyl)pyrrolidin-1-yl)propyl)benzo[d]isoxazole] | 39 | -15 |  |
| CN(C)CCC[C@@]1(c2ccc(F)cc2)OCc2cc(C#N)ccc21 [S-citalopram, reference compound] |  |  | FST MED (Wistar rats [1]): 20 mg/kg |
| C[C@H]1C[C@H](NS(=O)(=O)c2ccc3ccccc3c2)CN1CCCc1noc2cc(F)ccc12 [Compound 21, N-((3S,5S)-1-(3-(6-Fluorobenzo[d]isoxazol-3-yl)propyl)-5-methylpyrrolidin-3-yl)naphthalene-2-sulfonamide] | 4 | -6 | Kb [6]: 457 nM |
| CC(C)COc1ccc(CNC(=O)N(Cc2ccc(F)cc2)C2CCN(C)CC2)cc1 [Pimavanserin] |  |  | MK-801-induced hyperactivity MED (mice): 0.1 ^b mg/kg |
| O=S(=O)(CC1CCN(CCCc2noc3cc(F)ccc23)C1)c1ccc(C(F)(F)F)cc1 (centres unmarked) [Compound 7, 6-Fluoro-3-(3-(3-(((4-(trifluoromethyl)phenyl)sulfonyl)methyl)pyrrolidin-1-yl)propyl)benzo[d]isoxazole] | 29 | -7 | efficacy in the FST (in words) (Wistar rats [1]): did not show statistically significant efficacy; efficacy in the Vogel conflict drinking test (in words) (Wistar rats [2]): did not show statistically significant efficacy; MK-801-induced hyperactivity, total distance traveled (in words) (Wistar rats [4]): tended to decrease the total distance animals traveled |
| O=S(=O)(CC1CCN(CCCc2noc3cc(F)ccc23)C1)c1ccc(Cl)c(Cl)c1 (centres unmarked) [Compound 5, 6-Fluoro-3-(3-(3-(((3,4-dichlorophenyl)sulfonyl)methyl)-1-pyrrolidinyl)propyl)benzo[d]isoxazole] | 54 | 4 |  |
| O=S(=O)(CC1CCN(CCCc2noc3cc(F)ccc23)C1)c1cccc(Cl)c1 (centres unmarked) [Compound 11, 6-Fluoro-3-(3-(3-(((3-chlorophenyl)sulfonyl)methyl)-1-pyrrolidinyl)propyl)benzo[d]isoxazole] | 24 | -5 | efficacy in the FST (in words) (Wistar rats [1]): pronounced antidepressant-like activity; efficacy in the Vogel conflict drinking test (in words) (Wistar rats [2]): did not show statistically significant efficacy; MK-801-induced hyperactivity, total distance traveled (in words) (Wistar rats [4]): tended to decrease the total distance animals traveled |
| O=C1CC2(CCCC2)CC(=O)N1CCCCN1CCN(c2ncccn2)CC1 [Buspirone, reference compound] |  |  | Vogel test MED (Wistar rats [2]): 1.25 mg/kg; EPM MED (Wistar rats [3]): 1.25 mg/kg |
| Cc1ccc(S(=O)(=O)CC2CCN(CCCc3noc4cc(F)ccc34)C2)cc1C (centres unmarked) [Compound 3, 6-Fluoro-3-(3-(3-(((3,4-dimethylphenyl)sulfonyl)methyl)-1-pyrrolidinyl)propyl)benzo[d]isoxazole] | 58 | 5 |  |
| C[C@H]1C[C@H](NS(=O)(=O)c2csc3ccccc23)CN1CCCc1noc2cc(F)ccc12 [Compound 15, N-((3S,5S)-1-(3-(6-Fluorobenzo[d]isoxazol-3-yl)propyl)-5-methylpyrrolidin-3-yl)benzo[b]thiophene-3-sulfonamide] | 10 | 11 |  |
| CN(C)CCCN1c2ccccc2CCc2ccccc21 [Imipramine, reference compound] |  |  | FST MED (Wistar rats [1]): 10 mg/kg |
| C[C@H]1C[C@H](NS(=O)(=O)c2cc3ccc(F)cc3s2)CN1CCCc1noc2cc(F)ccc12 [Compound 18, 6-Fluoro-N-((3S,5S)-1-(3-(6-fluorobenzo[d]isoxazol-3-yl)propyl)-5-methylpyrrolidin-3-yl)benzo[b]thiophene-2-sulfonamide] | 19 | 7 |  |
